Among the data in the supplement of paper PMC5919970 are fractional viability values, retold here.

The subject of the assay is TYKNU. Put plainly: fractional viability relative to vehicle; TYKNU is a high-grade serous ovarian cancer line; higher = less growth inhibition. The following applies: 72 h, genotype: OPA1 knockout (sgOPA1 #2). The method, boiled down:
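TYKNU control cells or lentiCRISPRv2 knockout derivatives were plated at 500 cells per well in duplicate into drug-stamped 384-well plates holding a ~2100-compound library at 2 or 10 μM. Culture was in RPMI 1640 with 10% FBS at 37 °C in 5% CO2, with 72 h of drug treatment. Viability was measured by Cell Titer Glo luminescence, and the averaged duplicate treatment wells were normalised to duplicate control wells at the same plate position.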

Structures can show the parent of a compound that is named as a salt. Over roughly 2,000 compounds, “fractional viability relative to vehicle” has its median near 0.92; the lowest 2% begin near 0.11. Some of the results follow.

With `COc1ccc(/C=C/C(=O)Nc2ccccc2C(=O)O)cc1OC` [Tranilast], the fractional viability (2uM) worked out at 1.12 and the fractional viability (10uM) turned out to be 1.09.

With `CCOC(=O)C1=C(COCCN)NC(C)=C(C(=O)OC)C1c1ccccc1Cl` (stereo not given) [Amlodipine], the fractional viability reads like this: (2uM) 1.13; (10uM) 0.88.

Regarding `Cc1ncc(CCCN(C)C)cc1Nc1ncc2c(n1)-c1ccc(C(F)(F)F)cc1NC(=S)C2`, the fractional viability is, setting by setting: (2uM) 0.693; (10uM) 0.572.

The compound `Oc1ccc(/C=C/c2cc(O)cc(O)c2)cc1` [Resveratrol] displayed a fractional viability (2uM) of 1.03 and a fractional viability (10uM) of 0.976.

`CC(=O)c1cc2c(o1)C(=O)c1ccccc1C2=O` [Napabucasin] yielded a fractional viability (2uM) of 0.0542 and a fractional viability (10uM) of 0.0318.

Turning to `CCN(CC)CC(=O)Nc1c(C)cccc1C` [Lidocaine], the fractional viability was determined as 1.06 (2uM) and 0.994 (10uM).

As to `c1ccc2c(CC3=NCCN3)cccc2c1` [Naphazoline HCl], the fractional viability came to 1.06 (2uM) and 0.835 (10uM).

As for `CC(=O)OCC(=O)[C@@]12OC(C)(C)O[C@@H]1C[C@H]1[C@@H]3C[C@H](F)C4=CC(=O)C=C[C@]4(C)[C@@]3(F)[C@@H](O)C[C@@]12C` [Fluocinonide], the fractional viability runs as follows: (2uM) 1.1; (10uM) 0.882.

For the compound `CC(C=CC(=O)NO)=CC(C)C(=O)c1ccc(N(C)C)cc1` (stereo not given) [Trichostatin A (TSA)], the fractional viability runs as follows: (2uM) 0.335; (10uM) 0.298.

Consider `CN(c1ccccc1CNc1nc(Nc2ccc3c(c2)CC(=O)N3)ncc1C(F)(F)F)S(C)(=O)=O`, for which the fractional viability is 0.728 (2uM) and 0.523 (10uM).

With `Cc1ccc(S(=O)(=O)Cc2nc(-c3ccc(C(=O)NCc4cccnc4)cc3)oc2C)cc1`, the fractional viability by setting is: (2uM) 0.279; (10uM) 0.254.

With `CC/C(=C(\c1ccc(O)cc1)c1ccc(OCCNC)cc1)c1ccccc1` [Endoxifen HCl], the fractional viability is 0.982 (2uM) and 0.482 (10uM).

`COc1cccc2c1C(=O)c1c(O)c3c(c(O)c1C2=O)C[C@@](O)(C(C)=O)C[C@@H]3O[C@H]1C[C@H](N)[C@H](O)[C@H](C)O1` [Daunorubicin HCl] had a fractional viability (2uM) of 0.568 and a fractional viability (10uM) of 0.108.

As to `CNC(=O)c1cc(Oc2ccc(NC(=O)Nc3ccc(Cl)c(C(F)(F)F)c3)cc2)ccn1` [Sorafenib], the fractional viability (2uM) came out at 0.784 and the fractional viability (10uM) worked out at 0.543.

Take `CNC(=O)c1cc(Oc2ccc(NC(=O)Nc3ccc(Cl)c(C(F)(F)F)c3)cc2)ccn1` [Sorafenib Tosylate]: the fractional viability reads like this: (2uM) 0.843; (10uM) 0.637.

Take `CNC(=O)c1ccccc1Nc1cc(Nc2ccc(N3CCOCC3)cc2OC)ncc1C(F)(F)F`: the fractional viability turned out to be 0.696 (2uM) and 0.465 (10uM).

For `OCc1ccccc1O[C@@H]1O[C@H](CO)[C@@H](O)[C@H](O)[C@H]1O` [Salicin], the fractional viability is 1.02 (2uM) and 0.976 (10uM).

The compound `C=CC1=C(C(=O)O)N2C(=O)[C@@H](NC(=O)/C(=N\O)c3csc(N)n3)[C@H]2SC1` [Cefdinir] had a fractional viability (2uM) of 0.982 and a fractional viability (10uM) of 0.852.

For the compound `CN1C(CCl)Nc2cc(Cl)c(S(N)(=O)=O)cc2S1(=O)=O` (stereo not given) [Methyclothiazide], the fractional viability is, setting by setting: (2uM) 0.816; (10uM) 0.913.

`CC(=O)NS(=O)(=O)c1ccc(N)cc1` [Sulfacetamide Sodium] had a fractional viability (2uM) of 1.01 and a fractional viability (10uM) of 1.03.

As to `Cc1cn([C@H]2C=C[C@@H](CO)O2)c(=O)[nH]c1=O` [Stavudine (d4T)], the fractional viability reads like this: (2uM) 1.19; (10uM) 1.07.

With `C=C1CC[C@@H]2[C@](C)(CO)[C@H](O)CC[C@@]2(C)[C@@H]1C/C=C1/C(=O)OC[C@H]1O` [Andrographolide], the fractional viability by setting is: (2uM) 0.622; (10uM) 0.354.

Regarding `Cc1ncc(-c2ccnc(Nc3ccc(S(C)(=O)=O)cc3)n2)n1C(C)C`, the fractional viability is, setting by setting: (2uM) 0.256; (10uM) 0.363.

`N#Cc1ccc(-c2csc(NN=C3CCCC3)n2)cc1` [Remodelin]: the fractional viability worked out at 0.882 (2uM) and 1.03 (10uM).

With `O=C(/C=C/c1ccc(O)cc1)c1ccc(O)cc1O` [Isoliquiritigenin], the fractional viability stood at 1.03 (2uM) and 0.85 (10uM).

The compound `CS(=O)(=O)OCCCCOS(C)(=O)=O` [Busulfan] yielded a fractional viability (2uM) of 0.897 and a fractional viability (10uM) of 0.993.

On to `N#CCNC(=O)c1ccc(-c2ccnc(Nc3ccc(N4CCOCC4)cc3)n2)cc1`, for which the fractional viability is, setting by setting: (2uM) 1.15; (10uM) 0.327.

Consider `OCc1c[nH]c2ccccc12` [Indole-3-carbinol], for which the fractional viability (2uM) was found to be 1.08 and the fractional viability (10uM) stood at 1.14.

In the case of `CC(C)(CO)c1cc2cc(NC(=O)C3(c4ccc5c(c4)OC(F)(F)O5)CC3)c(F)cc2n1C[C@@H](O)CO`, the fractional viability was 0.884 (2uM) and 1.04 (10uM).

As for `Cc1c(CN2CCN(C(=O)[C@H](C)O)CC2)sc2c(N3CCOCC3)nc(-c3cnc(N)nc3)nc12`, the fractional viability is, setting by setting: (2uM) 0.392; (10uM) 0.376.

Compound `CN1CCc2c(c3ccccc3n2Cc2ccc(C(=O)NO)cc2)C1` [Tubastatin A] displayed a fractional viability (2uM) of 0.869 and a fractional viability (10uM) of 0.846.

Turning to `CN1CCc2c(c3ccccc3n2Cc2ccc(C(=O)NO)cc2)C1` [Tubastatin A HCl], the fractional viability by setting is: (2uM) 0.907; (10uM) 0.841.

In the case of `CC[C@@H]1C(=O)OC[C@@H]1Cc1cncn1C` [Pilocarpine HCl], the fractional viability is, setting by setting: (2uM) 0.826; (10uM) 0.786.

In the case of `COc1nc(OCc2cccc(-c3ccccc3)c2C)ccc1CNCCNC(C)=O` [PD-1/PD-L1 inhibitor 2], the fractional viability stood at 0.912 (2uM) and 0.487 (10uM).

Consider `CNc1cc(-c2cccc(Cl)c2Cl)nc(N)n1`, for which the fractional viability reads like this: (2uM) 0.476; (10uM) 0.368.

Turning to `CCC(C)(Oc1ccc(C2(c3ccc(OC(C)(CC)C(=O)O)cc3)CCCCC2)cc1)C(=O)O` (stereo not given) [Clinofibrate], the fractional viability worked out at 0.938 (2uM) and 0.887 (10uM).

As for `C[C@@H](O[C@H]1OCCN(Cc2nn(P(=O)(O)O)c(=O)[nH]2)[C@H]1c1ccc(F)cc1)c1cc(C(F)(F)F)cc(C(F)(F)F)c1` [Fosaprepitant dimeglumine salt], the fractional viability is 1.02 (2uM) and 0.832 (10uM).

With `c1nc2c(NC3CCCCC3)nc(Nc3ccc(N4CCOCC4)cc3)nc2[nH]1` [Reversine], the fractional viability stood at 0.571 (2uM) and 0.342 (10uM).

Take `COc1cc2nccc(Oc3ccc(NC(=O)NC4CC4)c(Cl)c3)c2cc1C(N)=O` [Lenvatinib (E7080)]: the fractional viability is, setting by setting: (2uM) 1.18; (10uM) 0.967.

For `C[C@H](CCC(=O)O)[C@H]1CC[C@H]2[C@@H]3[C@@H](O)C[C@@H]4C[C@H](O)CC[C@]4(C)[C@H]3CC[C@]12C` [Ursodiol], the fractional viability (2uM) amounted to 1.21 and the fractional viability (10uM) was 0.876.

`O=C(Nc1ccncc1)c1cc([N+](=O)[O-])ccc1Cl`: the fractional viability came to 1.01 (2uM) and 0.824 (10uM).

As to `O=C(CCCN1CCN(c2ccccn2)CC1)c1ccc(F)cc1` [Azaperone], the fractional viability stood at 0.827 (2uM) and 1.13 (10uM).

`COCCCN1CCC(NC(=O)c2cc(Cl)c(N)c3c2OCC3)CC1` [Prucalopride Succinat] registered a fractional viability (2uM) of 0.919 and a fractional viability (10uM) of 0.951.

With `COCCCN1CCC(NC(=O)c2cc(Cl)c(N)c3c2OCC3)CC1` [Prucalopride], the fractional viability by setting is: (2uM) 1.02; (10uM) 1.04.

Take `COC(=O)C1=C(C#N)NC(C)=C(C(=O)OC(C)C)C1c1cccc([N+](=O)[O-])c1` (stereo not given) [Nilvadipine]: the fractional viability turned out to be 0.877 (2uM) and 0.905 (10uM).
